Out of some 110,000 compounds screened, about 230 (0.21%) showed an effect of 50% or more. The list shows a part of the results.
Target: DPAP1 (Plasmodium falciparum, UniProt Q8IIJ9)
Experiment: primary screen, percent inhibition; read by cleavage of a fluorogenic dipeptide substrate; higher = more effect of the substance
Design: species or system P. falciparum D10 trophozoite lysates; single well
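Note: 30 min substrate incubation versus DMSO and 10 µM JCP410 controls.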

DPAP1, sequence (Q8IIJ9 whole entry, looked up): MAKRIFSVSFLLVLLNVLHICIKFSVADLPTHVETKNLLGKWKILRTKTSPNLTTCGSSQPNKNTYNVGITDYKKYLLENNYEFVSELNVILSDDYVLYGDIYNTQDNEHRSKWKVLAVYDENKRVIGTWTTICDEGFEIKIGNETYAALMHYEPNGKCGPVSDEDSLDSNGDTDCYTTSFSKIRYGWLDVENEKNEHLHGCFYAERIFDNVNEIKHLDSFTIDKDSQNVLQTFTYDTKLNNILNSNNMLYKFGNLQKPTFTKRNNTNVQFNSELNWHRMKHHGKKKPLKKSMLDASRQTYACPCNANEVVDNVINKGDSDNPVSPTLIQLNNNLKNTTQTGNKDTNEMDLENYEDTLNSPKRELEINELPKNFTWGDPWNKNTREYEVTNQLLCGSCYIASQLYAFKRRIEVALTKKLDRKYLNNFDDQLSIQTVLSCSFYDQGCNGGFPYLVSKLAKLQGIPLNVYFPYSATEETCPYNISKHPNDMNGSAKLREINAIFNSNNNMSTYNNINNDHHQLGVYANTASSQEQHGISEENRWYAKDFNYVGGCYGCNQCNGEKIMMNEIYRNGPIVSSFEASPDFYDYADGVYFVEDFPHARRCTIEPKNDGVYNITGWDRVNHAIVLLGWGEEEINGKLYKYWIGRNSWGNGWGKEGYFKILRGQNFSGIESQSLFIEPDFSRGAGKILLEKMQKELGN

| SMILES | % Inhibition @ 10 uM [%] |
| --- | --- |
| CCN(CC)CC(=O)Nc1ccc(OC)cc1 | -3.92 |
| O=C1c2ccccc2C(=O)N1CCS(=O)(=O)Oc1ccccc1 | 7.5 |
| CCOc1ccc2nc(N3CCC(C(=O)N4CCC(N5CCCCC5)CC4)CC3)sc2c1 | 7.91 |
| CCc1n(CC(O)COCC2CC=CCC2)c2ccccc2[n+]1C (stereo not drawn) | -2.14 |
| O=C1CCc2cc(OCc3ccc(Cl)cc3)ccc2O1 | -3.5 |
| O=C(CN1N=C(c2ccc(Cl)cc2)CCC1=O)NC1CCCCCCC1 | 0.514 |
| Cc1ccc(C2CC(O)=C/C(=N/c3[nH]nc(C)c3-c3ccccc3)C2)cc1 (stereo not drawn) | 2.31 |
| Cn1c(=O)n(C)c2cc(/C=C3/NC(=O)N(Cc4ccc(Br)cc4)C3=O)ccc21 | 6.69 |
| Cc1c(C(=O)N2CCN(Cc3ccccc3)CC2)sc2ncnc(N3CCCCC3C)c12 (stereo not drawn) | 2.38 |
| c1ccc2cc(OCCCCN3CCOCC3)ccc2c1 | -3.37 |
| COc1cccc(/C=c2\sc3nc(-c4cc(OC)c(OC)c(OC)c4)nn3c2=O)c1OC | 5.44 |
| O=C(CCNS(=O)(=O)c1ccc(Cl)cc1)NCc1cccs1 | -3.78 |
| CC(NC(=O)c1nc2ncccn2n1)c1ccccc1 (stereo not drawn) | -3.76 |
| COc1ccc(S(=O)Cc2ccc(C(=O)NCc3ccc(OC(C)C)cc3)o2)cc1 (stereo not drawn) | -2.15 |
| CCC(=O)Nc1ccc(S(=O)(=O)N2CCOCC2)cc1 | -4.03 |
| Cc1cc(=O)c2c(n1Cc1ccccc1)CC(C)(C)CC2=O | 1.88 |
| CCn1nc(-c2cc(Br)ccc2OC)nc2c(=O)n(C)c(=O)nc1-2 | 25.4 |
| CCOC(=O)N1CCN(C(=O)Cn2cnc3c(nnn3Cc3ccc(C)cc3)c2=O)CC1 | -2.16 |
| COc1ccc(C2C(C#N)=C(N)Oc3c2sc2nc(C)cc(C)c32)cc1 (stereo not drawn) | -0.968 |
| OCC1CCCN1CCCc1ccccc1 (stereo not drawn) | -3.8 |
| CCc1[nH]nc2c1C(c1cc(OC)c(OC)c(OC)c1)C(C#N)=C(N)O2 (stereo not drawn) | -0.941 |
| O=C(Nc1ccc(S(=O)(=O)N2CCc3ccccc32)cc1)c1ccccc1 | 2.27 |
| Brc1ccccc1OCCCn1ccnc1 | 1.74 |
| Cc1cccc(COc2cccc(C3C(C#N)=C(N)Oc4[nH]nc(C)c43)c2)c1 (stereo not drawn) | 6.24 |
| COc1cc(OC)c(OC)cc1/C=C1/N=C(c2cccc3ccccc23)OC1=O | -25 |
| COc1ccc(-c2ccc(-c3noc(-c4ccccc4C)n3)c(OC)n2)cc1 | -1.33 |
| Cc1nn(C)c(C(=O)NC(C)C2CC3CCC2C3)c1Br (stereo not drawn) | 3.13 |

| SMILES | % Inhibition @ 10 uM [%] |
| --- | --- |
| COc1ccccc1OCCN1CCCC1 | -2.91 |
| COC(=O)c1ccn(C(=O)c2ccc(Cl)cc2)n1 | -8.17 |
| CC1CC(=O)C2=C(C1)OC(N)=C(C#N)C2c1ccc(F)c(F)c1 (stereo not drawn) | 1.96 |
| CCOc1ccc(C(=O)Nc2ccc(Cl)cc2)cc1 | -3.69 |
| CC1(C)Cc2c(c(N3CCCC3)nc3sc4c(NCCN5CCOCC5)ncnc4c23)CO1 | 4.93 |
| CCc1ccc(CNc2ccc(NC(C)=O)cc2)cc1 | 0.231 |
| CC1CCCCN1CCNS(=O)(=O)c1ccc2nc(O)ccc2c1 (stereo not drawn) | -8.32 |
| CCc1ccccc1OCC(=O)Nc1ccc(F)cc1 | -1.43 |
| Cc1ccc(C)c(NC(=O)C[n+]2ccc3ccccc3c2)c1 | -4.12 |
| Cc1cccc(-n2c(Cc3cccn3C)nnc2SCC(=O)NCC2CCCO2)c1C (stereo not drawn) | 2.12 |
| COc1cccc(S(=O)(=O)NCc2ccc(C(=O)N3CCN(c4ccccc4OC)CC3)cc2)c1 | 8.18 |
| O=C(O)C12CC3CC(CC(S)(C3)C1)C2 | -8.51 |
| CSc1cccc(NC(=O)c2cncc(Br)c2)c1 | -0.68 |
| CCCCN(C)C(=O)Nc1cn(C)c(=O)c2ccccc12 | 0.201 |
| CCOc1ccc(C(=O)NCc2ccncc2)cc1 | -7.08 |
| CN(CCc1ccccc1)Cc1ccncc1 | -2.02 |
| CCOc1ccc(C2c3c(oc4cc(C)c(C)cc4c3=O)C(=O)N2CCOC)cc1OC (stereo not drawn) | -1.11 |
| CCOc1ccc(NC(=O)C2CC(=O)N(c3ccc(OCC)cc3)C2)cc1 (stereo not drawn) | 6.65 |
| CCN1CCn2c1nc(N1CCOCC1)nc2=O | -4.02 |
| O=C(CN1C(=O)c2cccc3cccc1c23)Nc1ccc(F)c(Cl)c1 | 9.01 |
| COc1ccc(CNC(=O)CCc2nnc3ccc(N4CCC(C)CC4)nn23)cc1 | -4.02 |
| O=C(Nc1cc(Cl)ccc1Cl)c1cc(Cl)ccc1NS(=O)(=O)c1ccc(Cl)c([N+](=O)[O-])c1 | 9.29 |
| COc1ccc(NC(=O)COc2ccc(Br)cc2C)cc1 | -2.03 |
| Cc1cc(C)nc(Nc2n[nH]c(-c3ccccc3C)n2)n1 | -6.57 |
| c1ccc2c(c1)c(N1CCN(C3CCCCC3)CC1)nn1nnnc21 | -5.09 |
| COCCNC(=O)C1CCN(S(=O)(=O)c2ccccc2)CC1 | -0.169 |
| O=C(CN1CCN(Cc2ccc(F)cc2Cl)C1=O)NCCCN1CCCC1=O | -2.7 |

| SMILES | % Inhibition @ 10 uM [%] |
| --- | --- |
| COCc1cc(C)n(CC(=O)Nc2ccccc2)c(=O)c1C#N | -2.88 |
| CCc1nc(C)ccc1OCC(=O)N(CC)CC | -5.15 |
| O=C(Cn1nc(-c2ccc(Cl)cc2)ccc1=O)NCc1ccc2c(c1)OCO2 | 1.62 |
| O=C(O)c1cc(-c2ccc(Cl)cc2)nc2ccccc12 | -2.55 |
| c1ccc(Sc2ccc3c(c2)OCO3)c(CNC2=NCCN2)c1 | -1.36 |
| CC(=O)c1cc(F)c(N2CCN(c3ccc([N+](=O)[O-])cc3F)CC2)cc1C | -1.2 |
| COc1ccc(C2C(=O)N(C3CCC(C)CC3)CC(=O)N2CCc2ccc(Cl)cc2)cc1OC (stereo not drawn) | 4.36 |
| CCCCN(C)CCNC(=O)Cn1ncc2c3cc(C)ccc3nc-2c1O | -1.97 |
| Cc1ccc(N2C(=O)CSC2c2ccc(Br)cc2)cc1 (stereo not drawn) | -0.132 |
| N#CSCC(=O)N1c2ccccc2CCc2ccccc21 | 6.3 |
| CCC(C)Sc1nc(O)cc(O)n1 (stereo not drawn) | 4.03 |
| O=C1CCCc2c1nc(-c1ccccc1Cl)n2O | 0.247 |
| CCOC(=O)C1=C(C)NC(=O)N(C(C)=O)C1c1ccc(OC)cc1 (stereo not drawn) | -4.24 |
| COc1cc(CN2CCN(Cc3ccc(C(F)(F)F)cc3)CC2)cc(OC)c1OC | -5.19 |
| CCn1c(P(=O)(O)c2ccc(C(=O)O)cc2)nc2ccccc21 | 3.58 |
| COc1ccccc1Nc1nc(Cl)nc(Sc2nc(C)cc(C)n2)n1 | 1.29 |
| Oc1ccc2ccccc2c1C(c1ccccc1)N1CCOCC1 (stereo not drawn) | 4.8 |
| Cc1ccc(NC(=O)c2c(Cl)c(C)nn2C)c(Br)c1 | 3.72 |
| Cc1cc(C(=O)N2CC(C)CC(C)C2)n(-c2ccccc2)n1 (stereo not drawn) | -5.58 |
| CCCCOC(=O)Nc1nccs1 | 0.685 |
| CC1CN(C(=O)c2ccc(Br)cc2)CC(C)O1 (stereo not drawn) | 1.84 |
| N/C(c1nsnc1N)=[N+](/[O-])C(=O)c1ccc2nsnc2c1 | 1.97 |
| COc1ccc(C2=NN(C(=O)CCC(=O)O)C(c3ccccc3F)C2)cc1 (stereo not drawn) | 4.59 |
| CC(=O)Nc1nc(Cn2nnc(-c3ccc4c(c3)OCO4)n2)nc(N(C)C)n1 | -0.403 |
| Cc1ccc(Cl)cc1NC(=O)C12CCC(C)(C(=O)C1=O)C2(C)C (stereo not drawn) | 1.78 |
| N#Cc1nnn(Cc2ccccc2)c1N | -6.84 |
| COC(=O)c1nc2n(n1)C(c1ccccc1C)C1=C(O)CCCC1=N2 (stereo not drawn) | -3.37 |

| SMILES | % Inhibition @ 10 uM [%] |
| --- | --- |
| N=c1n(CCOc2ccc(Cl)cc2)c2ccccc2n1CC(N)=O | -3.72 |
| O=C(c1ccc(COCC(F)(F)F)o1)N1CCCCCC1 | -4.77 |
| Cc1ccnc(NC(=O)CSc2nnc3c(n2)[nH]c2ccccc23)c1 | 1.67 |
| CCC1CCc2c(sc(NC(=O)CC(C)(C)C)c2C#N)C1 (stereo not drawn) | 5.67 |
| Cc1cccc(C(=O)Nc2sc3c(c2C(=O)NCc2ccccc2)CCC3)c1 | 2.26 |
| Cc1[nH]c2ccccc2c1C(Nc1cccc(F)c1)c1cccnc1 (stereo not drawn) | -0.123 |
| COc1ccc(CN2C(=O)S/C(=C/c3ccc(OC)cc3OC)C2=O)cc1 | -3.78 |
| CN(c1ccc(C(=O)Nc2ccc(F)cc2)cc1)S(=O)(=O)c1ccccc1 | -7.56 |
| O=C(NCCCCc1ccccc1)c1ccccc1Br | 3.53 |
| CCCCOc1ccccc1C1C(C(=O)OC)=CNC=C1C(=O)OC | 3.04 |
| CCCCCCN1C(=O)C(O)=C(C(C)=O)C1c1ccc2c(c1)OCO2 (stereo not drawn) | -1.66 |
| C#CCN1C(=O)S/C(=C/c2cc3c(cc2Cl)OCO3)C1=O | -1.93 |
| Cc1cc(C)c2c(N)c(S(=O)(=O)Cc3ccccc3)sc2n1 | 5.37 |
| Cc1ccc(NC(=O)COc2ccc(C)cc2C)c(C)c1 | 4.11 |
| COc1ccc(S(=O)(=O)N2CCCC2C(=O)n2nc(C)cc2C)cc1 (stereo not drawn) | 0.343 |
| CC(=O)NCC(C)CCC(=O)C(C)C1C(=O)CC2C3CC=C4CC(OC(C)=O)CCC4(C)C3CCC21C (stereo not drawn) | -4.96 |
| Nc1nc(-c2cccnc2)nc2c1nnn2Cc1ccccc1Cl | -8.53 |
| COc1ccc(NC(=O)COc2ccc(C(C)C)cc2)cc1Cl | -17 |
| O=C(O)c1nsc(Cl)c1Cl | -0.85 |
| COc1ccc2oc(C(=O)c3ccccc3)c(NC(C)=O)c2c1 | -3.77 |
| COc1cc(NC(=O)COc2ccccc2)ccc1Cl | 0.35 |
| CN(CCc1ccccc1)Cc1cccnc1 | -4.75 |
| CCOc1ccc2nc(C)c(C/C=C(/C)Cl)c(O)c2c1 | -3.09 |
| C(=C\c1ccccc1)/CN1CCN(Cc2ccsc2)CC1 | -0.261 |

Reference: publication PMC6919601, “Identification of Plasmodium dipeptidyl aminopeptidase allosteric inhibitors by high throughput screening” (PLoS ONE, 2019)
